# Reference: publication PMC4336329 (PLoS ONE, 2015)
# Hit rate of the full screen: of about 310,000 compounds, about 2,200 (0.71%) showed an effect of 50% or more. The effect is printed as a negative number. Some of the results follow.
# Target: human ether-à-go-go-related gene (hERG) potassium channel (human, UniProt Q12809)
# Assay: primary screen, population patch clamp on CHO cells stably expressing hERG
# Chain of human ether-à-go-go-related gene (hERG) potassium channel (Q12809 whole entry, looked up): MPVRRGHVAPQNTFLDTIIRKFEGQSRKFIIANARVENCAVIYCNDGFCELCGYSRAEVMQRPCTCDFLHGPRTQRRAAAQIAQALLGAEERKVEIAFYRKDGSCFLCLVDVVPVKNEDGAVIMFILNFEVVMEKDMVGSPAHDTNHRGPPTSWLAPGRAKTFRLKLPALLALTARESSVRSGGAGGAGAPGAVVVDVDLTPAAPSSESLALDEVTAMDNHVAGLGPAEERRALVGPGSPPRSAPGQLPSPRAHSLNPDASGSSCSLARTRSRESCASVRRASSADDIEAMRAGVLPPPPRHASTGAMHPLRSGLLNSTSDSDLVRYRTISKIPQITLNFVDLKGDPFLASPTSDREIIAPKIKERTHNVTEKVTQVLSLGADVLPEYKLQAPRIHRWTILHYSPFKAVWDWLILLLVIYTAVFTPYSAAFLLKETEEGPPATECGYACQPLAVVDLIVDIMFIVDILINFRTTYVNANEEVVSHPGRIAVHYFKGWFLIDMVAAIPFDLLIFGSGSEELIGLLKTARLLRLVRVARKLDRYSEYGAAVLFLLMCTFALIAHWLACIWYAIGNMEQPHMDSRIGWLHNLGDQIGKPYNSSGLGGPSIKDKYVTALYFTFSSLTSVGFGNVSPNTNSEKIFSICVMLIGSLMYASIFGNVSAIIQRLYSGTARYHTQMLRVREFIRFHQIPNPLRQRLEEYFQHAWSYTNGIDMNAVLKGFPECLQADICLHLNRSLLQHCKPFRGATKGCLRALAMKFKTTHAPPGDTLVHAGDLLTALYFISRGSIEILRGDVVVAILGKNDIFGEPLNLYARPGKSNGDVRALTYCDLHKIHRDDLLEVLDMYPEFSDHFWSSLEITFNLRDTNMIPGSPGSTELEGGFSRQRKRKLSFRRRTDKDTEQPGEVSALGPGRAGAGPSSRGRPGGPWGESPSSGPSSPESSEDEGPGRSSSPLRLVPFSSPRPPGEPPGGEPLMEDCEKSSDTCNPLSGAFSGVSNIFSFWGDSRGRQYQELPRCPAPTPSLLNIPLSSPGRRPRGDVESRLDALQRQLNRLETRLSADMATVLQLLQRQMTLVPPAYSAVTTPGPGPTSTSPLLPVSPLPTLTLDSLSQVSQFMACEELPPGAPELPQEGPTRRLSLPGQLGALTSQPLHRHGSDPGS
row,SMILES,"hERG current change (%, negative = inhibition) at 1uM"
1,COc1ccc(CN(C)C(=O)C23CC4CC(CC(C4)C2)C3)c(OC)c1,6.56%
2,S=c1[nH]nc(CN2CCCCC2)n1-c1ccc(Cl)cc1,12.6%
3,CCOC(=O)N1CCC(N(CCN(C)C)C(=S)Nc2ccc(F)c(Cl)c2)CC1,12.8%
4,O=C(Nc1cccc(-c2cn3cccnc3n2)c1)Nc1ccccc1F,6.45%
5,COc1cccc(-c2nc(CS(=O)(=O)CC(=O)Nc3cc(F)ccc3F)c(C)o2)c1,17.3%
6,CC(C)CCNC(=O)CN1N=C(c2ccc(Cl)cc2)CCC1=O,4.85%
7,CC(=O)Nc1ccc(S(=O)(=O)NCc2nc(-c3ccccc3C)no2)cc1,11.8%
8,COCCOC(=O)c1c(C)n(C)c2ccc(OC(=O)N(C)C)cc12,9.96%
9,CNC(=O)c1cc(NC(=O)CCn2nc(-c3ccccc3)c3ccccc3c2=O)ccc1OC,7.91%
10,Cc1oc(-c2cccs2)nc1CS(=O)CC(=O)NCCCOC(C)C (centres unmarked),1.87%
11,CCOC(=O)c1c(C)[nH]c(C)c1C(=O)COC(=O)CCOc1ccccc1OC,10.2%
12,Cc1ccc(/C=N/NC(=O)c2c[nH]c3ccccc23)s1,13.5%
13,O=C(CNC(=S)N(CCCN1CCOCC1)Cc1cccs1)NC1CCCCCCC1,-23.1%
14,COC(=O)Cn1ccc2cc(S(=O)(=O)N3CCCCC3)ccc21,15.2%
15,CC(=O)OC(C[N+]1(C)CCCCCC1)c1ccccc1.[I-] (centres unmarked),16.4%
16,CCOC(=O)C1=C(CBr)NC(=O)NC1C (centres unmarked),14.1%
17,O=c1c2ccccc2nnn1-c1ccc(Br)cc1,14.5%
18,O=C(CN1C(=O)/C(=C/c2cccc(Br)c2)SC1=S)NCCCN1CCOCC1,7.47%
19,CCOc1cc(S(=O)(=O)Nc2ccc(Cl)cn2)ccc1F,12.2%
20,C=CCNc1oc(-c2cccs2)nc1S(=O)(=O)c1ccccc1,-4.58%
21,CCN1CCN(C(=O)COc2ccc(S(=O)(=O)Nc3ccc(Cl)cc3)cc2)CC1,12.1%
22,O=C(NNc1ccccc1F)c1ccccc1,2.87%
23,Cc1ccc(NC(=O)NC(=O)CN2CCC(C(N)=O)CC2)c(C)c1,11.2%
24,COc1ccc(CNC(=O)c2cccc(N3CCCC3=O)c2)cc1,4.69%
25,O=C(N/N=C/c1ccco1)c1cc(C2CC2)[nH]n1,6.81%
26,COc1nc(-c2ccc(Cl)cc2)nnc1C,8.46%
